Measurements: the supplement of paper PMC4967469
The IC50 comes from the fitted curve, where viability falls to half of the control; a fit beyond the top or the lowest dose is shown as a bound at that dose. AUC, from the same fit, is the share of area under the viability curve across the 256-fold dose range: 1 means no effect, lower means more sensitive.

Compound: NC1(c2ccc(-c3nc4ccn5c(=O)[nH]nc5c4cc3-c3ccccc3)cc2)CCC1 [MK-2206]
Assay: Viability of human cancer cell lines after 72 h of drug (GDSC screen)
Description: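 Human cancer cell lines in 384-well plates, medium with 10% serum, drug for 72 h over a 256-fold dose range (nine 2-fold or five 4-fold steps up to the top dose). Adherent lines were fixed and stained with the nucleic acid dye Syto60, suspension lines read with resazurin; signal relative to control wells, capped at 0 and 100%. One two-parameter sigmoid per drug and line, fitted in a mixed model over all curves with the slope shared within a line.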

Question: What does the source list for “LB1047-RCC (kidney, adherent, top dose 4 µM)”?
Answer: AUC: 0.774; IC50: 1770 nM

Question: For SF295 (glioma, adherent, top dose 4 µM), which AUC is on record?
Answer: 0.862

Question: And the IC50?
Answer: 3860 nM

Question: “HCC1187 (breast, suspension, top dose 4 µM)” was tested. Which AUC did it give?
Answer: 0.882

Question: What about the IC50 of the same cell line?
Answer: 3880 nM

Question: “LoVo (large intestine, adherent, top dose 4 µM)” was tested. Which AUC did it give?
Answer: 0.712

Question: What about the IC50 of the same cell line?
Answer: 1000 nM

Question: What does the source list for “NMC-G1 (glioma, adherent, top dose 4 µM)”?
Answer: AUC: 0.918; IC50: > 4000 nM

Question: Which AUC does the source give for “RH-1 (rhabdomyosarcoma, adherent, top dose 4 µM)” here?
Answer: 0.915

Question: What about the IC50 of the same cell line?
Answer: > 4000 nM

Question: With “SU-DHL-8 (B-cell lymphoma, suspension, top dose 4 µM)” as the cell line, how does the AUC read?
Answer: 0.988

Question: And the IC50?
Answer: > 4000 nM

Question: What does the source list for “LU-65 (large cell lung carcinoma, suspension, top dose 4 µM)”?
Answer: AUC: 0.987; IC50: > 4000 nM

Question: What does the source list for G-401 (kidney, adherent, top dose 4 µM)?
Answer: AUC: 0.702; IC50: 984 nM

Question: Which AUC does the source give for “Hep 3B2_1-7 (liver, adherent, top dose 4 µM)” here?
Answer: 0.787

Question: And the IC50?
Answer: 1730 nM

Question: Which AUC does the source give for “EM-2 (chronic myeloid leukaemia, suspension, top dose 4 µM)” here?
Answer: 0.644

Question: What about the IC50 of the same cell line?
Answer: 662 nM

Question: What does the source list for “EW-22 (Ewing sarcoma, adherent, top dose 4 µM)”?
Answer: AUC: 0.864; IC50: 3260 nM

Question: How did the AUC turn out when “SBC-3 (small cell lung carcinoma, adherent, top dose 4 µM)” was run?
Answer: 0.98

Question: And the IC50?
Answer: > 4000 nM

Question: For JHH-2 (liver, adherent, top dose 4 µM), which AUC is on record?
Answer: 0.764

Question: What about the IC50 of the same cell line?
Answer: 1560 nM

Question: Which AUC does the source give for “WM35 (melanoma, adherent, top dose 4 µM)” here?
Answer: 0.897

Question: And the IC50?
Answer: > 4000 nM

Question: Which results are given for “BALL-1 (B-cell leukaemia, suspension, top dose 4 µM)”?
Answer: AUC: 0.971; IC50: > 4000 nM

Question: Which results are given for “CML-T1 (chronic myeloid leukaemia, suspension, top dose 4 µM)”?
Answer: AUC: 0.925; IC50: > 4000 nM

Question: Which results are given for “SW1417 (large intestine, adherent, top dose 4 µM)”?
Answer: AUC: 0.93; IC50: > 4000 nM

Question: With “ATN-1 (T-cell lymphoblastic leukaemia, suspension, top dose 4 µM)” as the cell line, how does the AUC read?
Answer: 0.758

Question: What about the IC50 of the same cell line?
Answer: 1300 nM

Question: Which results are given for “EW-3 (Ewing sarcoma, adherent, top dose 4 µM)”?
Answer: AUC: 0.827; IC50: 2920 nM

Question: What does the source list for “MS-1 (small cell lung carcinoma, suspension, top dose 4 µM)”?
Answer: AUC: 0.963; IC50: > 4000 nM

Question: With “NCI-H1993 (lung adenocarcinoma, adherent, top dose 4 µM)” as the cell line, how does the AUC read?
Answer: 0.98

Question: And the IC50?
Answer: > 4000 nM

Question: Which AUC does the source give for “MRK-nu-1 (breast, suspension, top dose 4 µM)” here?
Answer: 0.99

Question: And the IC50?
Answer: > 4000 nM

Question: For “VA-ES-BJ (soft tissue, adherent, top dose 4 µM)”, which AUC is on record?
Answer: 0.658

Question: What about the IC50 of the same cell line?
Answer: 706 nM

Question: With “DG-75 (Burkitt lymphoma, suspension, top dose 4 µM)” as the cell line, how does the AUC read?
Answer: 0.831

Question: What about the IC50 of the same cell line?
Answer: 2570 nM

Question: Which results are given for “ST486 (Burkitt lymphoma, suspension, top dose 4 µM)”?
Answer: AUC: 0.98; IC50: > 4000 nM

Question: How did the AUC turn out when “PFSK-1 (medulloblastoma, adherent, top dose 4 µM)” was run?
Answer: 0.725

Question: What about the IC50 of the same cell line?
Answer: 1140 nM

Question: How did the AUC turn out when “HCC1569 (breast, adherent, top dose 4 µM)” was run?
Answer: 0.902

Question: What about the IC50 of the same cell line?
Answer: > 4000 nM

Question: How did the AUC turn out when “OCI-LY-19 (B-cell lymphoma, suspension, top dose 4 µM)” was run?
Answer: 0.916

Question: What about the IC50 of the same cell line?
Answer: > 4000 nM

Question: With “KMRC-20 (kidney, adherent, top dose 4 µM)” as the cell line, how does the AUC read?
Answer: 0.927

Question: And the IC50?
Answer: > 4000 nM

Question: Which AUC does the source give for “SCC-15 (head and neck, adherent, top dose 4 µM)” here?
Answer: 0.895

Question: What about the IC50 of the same cell line?
Answer: > 4000 nM

Question: DJM-1 (skin, adherent, top dose 4 µM) was tested. Which AUC did it give?
Answer: 0.947

Question: And the IC50?
Answer: > 4000 nM

Question: How did the AUC turn out when GB-1 (glioma, adherent, top dose 4 µM) was run?
Answer: 0.861

Question: And the IC50?
Answer: > 4000 nM

Question: Which results are given for “PCI-15A (head and neck, adherent, top dose 4 µM)”?
Answer: AUC: 0.676; IC50: 779 nM

Question: How did the AUC turn out when “SK-LMS-1 (soft tissue, adherent, top dose 4 µM)” was run?
Answer: 0.663

Question: And the IC50?
Answer: 693 nM

Question: How did the AUC turn out when “RCC-FG2 (kidney, adherent, top dose 4 µM)” was run?
Answer: 0.536

Question: And the IC50?
Answer: 321 nM

Question: With “OPM-2 (myeloma, suspension, top dose 4 µM)” as the cell line, how does the AUC read?
Answer: 0.931

Question: And the IC50?
Answer: > 4000 nM

Question: With OV-56 (ovary, adherent, top dose 4 µM) as the cell line, how does the AUC read?
Answer: 0.933

Question: And the IC50?
Answer: > 4000 nM

Question: For “A253 (head and neck, adherent, top dose 4 µM)”, which AUC is on record?
Answer: 0.949

Question: What about the IC50 of the same cell line?
Answer: > 4000 nM

Question: For “SU-DHL-16 (B-cell lymphoma, suspension, top dose 4 µM)”, which AUC is on record?
Answer: 0.605

Question: What about the IC50 of the same cell line?
Answer: 448 nM

Question: “L-1236 (Hodgkin lymphoma, suspension, top dose 4 µM)” was tested. Which AUC did it give?
Answer: 0.844

Question: And the IC50?
Answer: 2230 nM

Question: With GAMG (glioma, adherent, top dose 4 µM) as the cell line, how does the AUC read?
Answer: 0.753

Question: What about the IC50 of the same cell line?
Answer: 1390 nM

Question: With “MFE-296 (endometrium, adherent, top dose 4 µM)” as the cell line, how does the AUC read?
Answer: 0.719

Question: What about the IC50 of the same cell line?
Answer: 1100 nM

Question: Which AUC does the source give for “NCI-H1437 (lung adenocarcinoma, adherent, top dose 4 µM)” here?
Answer: 0.789

Question: And the IC50?
Answer: 1850 nM

Question: With TK10 (kidney, adherent, top dose 4 µM) as the cell line, how does the AUC read?
Answer: 0.891

Question: And the IC50?
Answer: > 4000 nM

Question: For “MZ7-mel (melanoma, adherent, top dose 4 µM)”, which AUC is on record?
Answer: 0.973

Question: And the IC50?
Answer: > 4000 nM

Question: What does the source list for “NCI-H526 (small cell lung carcinoma, suspension, top dose 4 µM)”?
Answer: AUC: 0.871; IC50: 3480 nM

Question: How did the AUC turn out when “NCI-H838 (lung adenocarcinoma, adherent, top dose 4 µM)” was run?
Answer: 0.693

Question: What about the IC50 of the same cell line?
Answer: 892 nM

Question: How did the AUC turn out when “ES6 (Ewing sarcoma, adherent, top dose 4 µM)” was run?
Answer: 0.86

Question: And the IC50?
Answer: > 4000 nM

Question: “TK (B-cell lymphoma, suspension, top dose 4 µM)” was tested. Which AUC did it give?
Answer: 0.867

Question: And the IC50?
Answer: 3100 nM

Question: With “KM-H2 (Hodgkin lymphoma, suspension, top dose 4 µM)” as the cell line, how does the AUC read?
Answer: 0.993

Question: What about the IC50 of the same cell line?
Answer: > 4000 nM

Question: What does the source list for C32 (melanoma, adherent, top dose 4 µM)?
Answer: AUC: 0.835; IC50: 2870 nM

Question: “IST-SL1 (small cell lung carcinoma, semi-adherent, top dose 4 µM)” was tested. Which AUC did it give?
Answer: 0.986

Question: And the IC50?
Answer: > 4000 nM

Question: Which results are given for “KY821 (leukaemia, suspension, top dose 4 µM)”?
Answer: AUC: 0.963; IC50: > 4000 nM

Question: Which results are given for “KMOE-2 (acute myeloid leukaemia, suspension, top dose 4 µM)”?
Answer: AUC: 0.777; IC50: 1440 nM

Question: OC-314 (ovary, adherent, top dose 4 µM) was tested. Which AUC did it give?
Answer: 0.883

Question: What about the IC50 of the same cell line?
Answer: 3240 nM

Question: For “QIMR-WIL (acute myeloid leukaemia, suspension, top dose 4 µM)”, which AUC is on record?
Answer: 0.946

Question: What about the IC50 of the same cell line?
Answer: > 4000 nM

Question: Which AUC does the source give for “NCI-H1755 (lung adenocarcinoma, adherent, top dose 4 µM)” here?
Answer: 0.936

Question: What about the IC50 of the same cell line?
Answer: > 4000 nM

Question: Which AUC does the source give for “KOPN-8 (B-cell leukaemia, suspension, top dose 4 µM)” here?
Answer: 0.943

Question: What about the IC50 of the same cell line?
Answer: > 4000 nM

Question: How did the AUC turn out when “QGP-1 (pancreas, adherent, top dose 4 µM)” was run?
Answer: 0.979

Question: And the IC50?
Answer: > 4000 nM

Question: For “DMS-114 (small cell lung carcinoma, adherent, top dose 4 µM)”, which AUC is on record?
Answer: 0.813

Question: And the IC50?
Answer: 2570 nM
